Measured values as given in PubChem BioAssay AID485294 (National Center for Advancing Translational Sciences (NCATS), 2010).
Among all 370,000 compounds or so, about 150 (0.041%) were called active. The inconclusive results got no clear call from the source; some entries with a clear call stand among them for comparison. The call rests on the fitted dose curve; in most records, active means well fitted inhibition curve with a large enough effect; inconclusive means small, poorly fitted or top-dose-only effect; inactive means flat fitted curve, though single readings scatter. No potency is given beside an inconclusive call; the fits are too rough.

Each compound was assayed against Beta-lactamase (Escherichia coli (strain K12)) (UniProt P00811) (assay: qHTS Inhibitors of AmpC Beta-Lactamase (assay with detergent)). Conditions: AmpC hydrolysis of nitrocefin, absorbance 480 nm, 0.01% Triton; activity change, negative = inhibition: at 114 µM (top of the series).
Procedure, shortened: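 20 mM phosphate pH 7.0 + 0.01% (detergent screen) or 0.0001% Triton X-100; 5.3 nM AmpC reagent; cpd preinc 15 min RT; nitrocefin (800 uM stock) to start; A480 q20 s × 4 min; Activity was normalised to no-enzyme and no-compound control wells.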
Further: nearly all actives have a fitted effect of over 25% in size.
Potency means the concentration at half of the fitted maximal effect; tags describe the fitted curve by direction and shape.
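Wherever activity change, negative = inhibition is given: 0% = no-compound wells and -100% = no-enzyme wells.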

Chain of UniProt P00811 (P00811 whole entry, looked up): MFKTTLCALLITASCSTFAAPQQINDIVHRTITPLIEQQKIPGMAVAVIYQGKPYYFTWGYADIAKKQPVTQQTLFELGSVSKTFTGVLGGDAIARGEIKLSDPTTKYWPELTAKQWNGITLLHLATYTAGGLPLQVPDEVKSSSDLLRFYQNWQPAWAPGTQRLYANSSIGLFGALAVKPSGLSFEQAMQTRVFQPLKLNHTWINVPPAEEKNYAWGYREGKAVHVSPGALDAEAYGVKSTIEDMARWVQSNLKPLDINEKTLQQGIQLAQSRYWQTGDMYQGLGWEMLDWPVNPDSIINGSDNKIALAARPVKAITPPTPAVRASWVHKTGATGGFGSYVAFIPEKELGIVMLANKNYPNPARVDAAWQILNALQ

Structure (SMILES) | Potency | activity change, negative = inhibition
COc1ccc(-c2cc(C(=O)NC(Cc3c[nH]c4ccccc34)C(=O)O)c(C)o2)cc1OC (centres undefined) | inconclusive [inhibitor, partial curve, poor fit] | –
O=C(Nc1nnc(-c2cccs2)s1)c1cccc(F)c1 | inconclusive [inhibitor, full curve, poor fit] | –
Cn1cccc1C1NC(=O)c2c(sc3c2CCC(C(C)(C)C)C3)N1 (centres undefined) | – | inactive: -21.1%
COc1cccc(/C=N/n2c(-c3cc(C)[nH]n3)n[nH]c2=S)c1O | – | inactive: -6.87%
Cc1ccc(NC(=O)CSc2nnnn2C)cc1S(=O)(=O)N(C)C | – | inactive: -1.21%
COc1cc2nc(C)sc2cc1SC | – | inactive: -10.1%
C=CCNC(=O)C1CCC(C(=O)NCC=C)CC1 (centres undefined) | inconclusive [inhibitor, partial curve] | –
NS(=O)(=O)c1cccc(NC(=O)Cc2ccc(Cl)c(Cl)c2)c1 | – | inactive: 3.13%
COC(=O)Cc1ccc(NC(=O)c2ccccc2Cl)cc1 | – | inactive: 4.5%
CCCN1C(=O)c2[nH]nc(-c3cc(Cl)c(C)cc3O)c2C1c1ccc(O)c(OC)c1 (centres undefined) | – | inactive: 1.67%
CC(C)c1ccccc1NC(=O)Nc1ccc2c(c1)OCO2 | – | inactive: 0.403%
O=C(CCCC(=O)OCC(=O)c1ccc(Cl)cc1Cl)Nc1cc(C(F)(F)F)ccc1Cl | – | inactive: -2.84%
CC(=O)OCCC(NS(=O)(=O)OCC(Cl)(Cl)Cl)c1ccccc1 (centres undefined) | inconclusive [inhibitor, full curve, poor fit] | –
O=c1c2ccccc2c(C=Nc2ccccc2O)c(O)n1-c1nccs1 | – | inactive: -0.0582%
Cc1ccc(S(=O)(=O)N2CCCCC2)cc1NC(=O)c1ccc2ccccc2n1 | inconclusive [inhibitor, full curve, poor fit] | –
COc1ccc(Nc2nc3cc(C)ccc3cc2C#N)cc1 | inconclusive [inhibitor, full curve, poor fit] | –
COC(=O)CN(c1ccc2c(c1)OCO2)S(=O)(=O)c1c(C)[nH]c(=O)[nH]c1=O | inconclusive [inhibitor, partial curve] | –
CC(=O)Nc1nc(Cn2nnc(-c3ccc4c(c3)OCO4)n2)nc(N(C)C)n1 | inconclusive [inhibitor, single point] | –
CCn1c(C)nc2cc(C(=O)NNC(=O)Nc3ccc(Cl)cc3)ccc21 | – | inactive: -0.927%
CCOc1ccc(CNC(=O)CSc2c3c(nc4cc(Cl)ccc24)CCCC3)cc1 | – | inactive: 3.96%
CCC1(c2ccccc2)NC(=O)N(CC(=O)Nc2cc(Cl)ccc2N2CCN(C)CC2)C1=O (centres undefined) | inconclusive [inhibitor, full curve, poor fit] | –
CN(C)C(=O)Oc1ccc(OCc2nc3ccccc3[nH]2)cc1 | – | inactive: -13.4%
COc1ccc(S(=O)(=O)N2CCCC2CNC(=O)C(=O)NCc2ccccc2)cc1 (centres undefined) | inconclusive [inhibitor, full curve, poor fit] | –

Structure (SMILES) | Potency | activity change, negative = inhibition
CCCCCCn1cc(C(=O)O)c(=O)c2cc(F)c(N3CCCCC3)cc21 | inconclusive [inhibitor, single point] | –
O=C(COC(=O)c1ccc2ccccc2c1O)NCC(F)(F)F | – | inactive: 2.77%
Cc1ccc(OCCC(=O)OCC(=O)Nc2c(C)nn(-c3ccccc3)c2C)cc1 | inconclusive [inhibitor, full curve, poor fit] | –
O=C(Nc1cc2c(cc1C(=O)O)OCCCO2)c1ccc(F)cc1F | inconclusive [inhibitor, single point] | –
CCOc1cc(C)c(Cl)cc1S(=O)(=O)NCCOC | inconclusive [inhibitor, partial curve] | –
CC(C)c1ccc(S(=O)(=O)N2CCN(C(=O)n3ccnc3)CC2)cc1 | – | inactive: -2.28%
Cn1c(SCC(=O)Nc2cccc(F)c2)nc2c(c1=O)SCC2 | – | inactive: -5.7%
CCOC(=O)c1ccc(NC(=O)C2CCCN(S(=O)(=O)c3ccc(F)cc3)C2)cc1 (centres undefined) | inconclusive [inhibitor, full curve, poor fit] | –
COc1cccc(/C=C/C(=O)OCC(=O)Nc2ccc(S(=O)(=O)N3CCCC3)cc2)c1 | – | inactive: -8.52%
COc1ccc(NC(=O)c2c(C)nn(-c3ccccc3)c2Cl)cc1 | inconclusive [inhibitor, partial curve] | –
CCCCCn1c(=O)c(C(=O)OCC)c(O)c2ccccc21 | inconclusive [inhibitor, full curve] | –
COc1cccc(NC(=S)NNC(=O)C(C)n2nc(C)c([N+](=O)[O-])c2C)c1 (centres undefined) | inconclusive [inhibitor, partial curve] | –
CC(=O)Nc1cccc(C(=O)OCC(=O)N2CCC(c3ccccc3)=N2)c1 | inconclusive [inhibitor, full curve, poor fit] | –
COc1ccc(-c2nc(C)c(CCNC(=O)c3ccc(C(F)(F)F)cc3)s2)cc1OC | – | inactive: 5.88%
Cc1ccc(N2CC(C(=O)NCc3ccc4c(c3)OCO4)CC2=O)cc1C (centres undefined) | inconclusive [inhibitor, single point] | –
Cc1cccc(C(=O)Nc2ccc(N3CC=C(c4ccccc4C)CC3)c(C(=O)O)c2)c1 | inconclusive [inhibitor, single point] | –
NC(=O)N=Nc1c(O)[nH]c2ccc([N+](=O)[O-])cc12 | – | inactive: -5.39%
CCC1=Nc2cc(C(=O)NCCCN3CCN(C)CC3)ccc2Sc2ccccc21 | – | inactive: 2.62%
CC(C)NC(=O)c1ccc2c(c1)N(CC(=O)N1CCCCC1)C(=O)C(C)(C)O2 | – | inactive: -14.8%
O=c1c(C=NCCCn2ccnc2)c(-c2ccccc2)[nH]n1-c1nc2ccccc2s1 | inconclusive [inhibitor, full curve, poor fit] | –
Cc1sc2ncnc(NCCc3ccc(S(N)(=O)=O)cc3)c2c1C | inconclusive [inhibitor, single point] | –
O=C(Nc1cccc(O)c1)c1cc2nc(-c3ccccc3)cc(-c3ccccc3)n2n1 | inconclusive [inhibitor, full curve, poor fit] | –
Cc1ccccc1N1C(=O)C(Cl)=C(N2CCCCCC2)C1=O | inconclusive [inhibitor, partial curve] | –

Structure (SMILES) | Potency | activity change, negative = inhibition
Cc1ccc(N(CC(=O)N2CCCC2)S(C)(=O)=O)c(C)c1 | inconclusive [inhibitor, full curve, poor fit] | –
CCc1ccc(N/C(=N/c2nc(C)cc(C)n2)NC(C)=O)cc1 | inconclusive [inhibitor, single point] | –
C/C(=N\NC(N)=S)c1ccc2c(c1)OCCO2 | – | inactive: -5.25%
C=CCOC(=O)C1=C(C)N=C2SCCC(=O)N2C1c1ccc(OC(=O)c2ccco2)cc1 (centres undefined) | inconclusive [inhibitor, partial curve, poor fit] | –
CN(CC(=O)Nc1cccc(F)c1)C(=O)CCC1CCCCC1 | inconclusive [inhibitor, single point] | –
C#CCOCCOCCOCCNc1nc(N2CCN(C(=O)CCCCCCCCCCNC(=O)[C@@H](CCSC)n3cc(CCO)nn3)CC2)nc(N2CCN(C(=O)CCCCCCCCCCNC(=O)[C@H](CCC(=O)O)n3cc(CCCCCN)nn3)CC2)n1 | – | inactive: -3.45%
Cc1cccc(C)c1N(CC(=O)Nc1cccc(N(C)S(C)(=O)=O)c1)S(C)(=O)=O | inconclusive [inhibitor, partial curve] | –
Cc1cc(C)c(OCC(=O)NCC(c2ccco2)N2CCCCC2)c(C)c1 (centres undefined) | – | inactive: 0.8%
CCCC/C(=N/O)c1c(C)[nH]c2ccccc12 | inconclusive [inhibitor, single point] | –
CCN(CC)C(=O)CSc1nc2c(sc(=S)n2Cc2ccco2)c(=O)n1-c1ccccc1 | inconclusive [inhibitor, full curve] | –
CCOc1cc(N2CCOCC2)c(OCC)cc1NC(=O)COc1ncnc2ccccc12 | inconclusive [inhibitor, partial curve, poor fit] | –
O=C(N/C(=C/c1ccco1)C(=O)N1CCc2ccccc21)c1ccco1 | – | inactive: 1.41%
Cc1ccc(NC(=O)CN2C(=O)c3ccccc3C2=O)c(C)c1 | inconclusive [inhibitor, full curve] | –
CCC(=O)/C=C1\Sc2ccc(OC)cc2N1CC | inconclusive [inhibitor, full curve, poor fit] | –
COc1ccc(-c2nnc(SCC(=O)N3CCOCC3)o2)cc1 | inconclusive [inhibitor, partial curve, poor fit] | –
Cc1noc(C)c1COc1ccc(C(=O)OCC(N)=O)cc1 | inconclusive [inhibitor, full curve, poor fit] | –
O=C(COC(=O)c1ccccc1)Nc1cc(S(=O)(=O)N2CCCCCC2)ccc1Cl | inconclusive [inhibitor, full curve, poor fit] | –
COc1cccc(N2CC(C(=O)NNC(=O)c3ccc(Cl)cc3)CC2=O)c1 (centres undefined) | – | inactive: -2.77%
COc1ccccc1OCCOCCOc1c(C)cc(C)cc1Br | inconclusive [inhibitor, partial curve] | –
O=C(CC1(O)C(=O)Nc2ccccc21)c1ccccc1O (centres undefined) | inconclusive [inhibitor, partial curve] | –
CCN(CC)CCCNC(=O)Cn1ncn2cccc2c1=O | inconclusive [inhibitor, single point] | –
O=C(/C=C/c1cccc([N+](=O)[O-])c1)c1ccco1 | inconclusive [inhibitor, full curve, poor fit] | –
Cc1cccc(OCCn2c(CCCO)nc3ccccc32)c1 | inconclusive [inhibitor, full curve] | –
